Test results reported in PubChem BioAssay AID686978 (National Center for Advancing Translational Sciences (NCATS), 2013).
The whole screen tested about 420,000 compounds, of which about 64,000 (15%) were called active. This list was built around the results that the source calls inconclusive (neither active nor inactive); the mix of calls is not that of the screen. Calls follow the shape of the dose curve; as a rule, active = well fitted inhibition curve with a large enough effect; inconclusive = small, poorly fitted or top-dose-only effect; inactive = flat fitted curve, though single readings scatter. No potency is given beside an inconclusive call; the fits are too rough. Where a structure was tested more than once in an assay, its records may differ in their call.

Assay: qHTS for Inhibitors of human tyrosyl-DNA phosphodiesterase 1 (TDP1): qHTS in cells in absence of CPT; also: nearly all actives have a fitted effect of over 55% in size
Details: DT40 Tdp1-/- hTDP1 cells, no CPT, ATP luminescence, 48 h; activity change, negative = growth inhibition: at 46.2 µM (top of the series) unless noted
Summary of the method: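 Camptothecin absent (DMSO only). Human TDP1-complemented DT40 knockout cells, 400 cells/well, 37 °C for minimum 48 hr; ATP measured via CellTiter-Glo, 30 min dark incubation, luminescence.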
% is scaled to controls: 0 for no effect and ±100 for the full control effect; potency is read from the fitted curve at half-maximal effect; tags tell the direction and shape of the fitted curve.

With `C[C@@H]1CN([C@H](C)CO)C(=O)CCCn2nncc2CO[C@H]1CN(C)C(=O)Oc1ccccc1` as the compound, how does the “activity change, negative = growth inhibition” value read?
The value was inactive: -5.44%.

With `CCC(=O)O[C@@H]1CC(=O)O[C@H](C)C/C=C/C=C/[C@H](O)[C@H](C)C[C@H](CC=O)[C@H](O[C@@H]2O[C@H](C)[C@@H](O[C@H]3C[C@@](C)(O)[C@@H](OC(=O)CC)[C@H](C)O3)[C@H](N(C)C)[C@H]2O)[C@H]1OC` as the compound, how does the Potency read?
Its Potency is inconclusive [inhibitor, single point].

With `C[C@@H]1O[C@@H](O[C@H]2C[C@@H](O)[C@]3(CO)[C@H]4[C@H](O)C[C@]5(C)[C@@H](C6COC(=O)C6)CC[C@]5(O)[C@@H]4CC[C@]3(O)C2)[C@H](O)[C@H](O)[C@H]1O` (stereo not given in full) as the compound, how does the Potency read?
Its Potency is inconclusive [inhibitor, single point].

With `COC(=O)C1=CO[C@@H](C)[C@H]2CN3CC[C@]4(C(=O)Nc5ccccc54)[C@@H]3C[C@H]12` as the compound, how does the “activity change, negative = growth inhibition” value read?
Its value is inactive: 4.8%.

Which Potency does the source give for `COc1cc2c(cc1OC)[C@@H]1C(=O)c3ccc4c(c3OC1CO2)CC(C(C)C)O4` (stereo not given in full) here?
Its Potency is active: 0.082 µM.

Which Potency does the source give for `O=[N+]([O-])c1cccc(NP(=O)(N2CC2)N2CC2)c1` here?
The Potency was active: 6.51 µM.

For `Cc1ccc2c(c1)C1CN(C)CCC1N2C(=O)CCCN1C(=O)c2cccc3cccc(c23)C1=O` (stereo not given), which Potency is on record?
The Potency was inconclusive [inhibitor, single point].

With `CC(C)n1c(=O)c(C=Nc2cccc([N+](=O)[O-])c2)c(O)n(CCc2ccccc2)c1=O` as the compound, how does the “activity change, negative = growth inhibition” value read?
The value was inactive: -4.31%.

With `CC(C)[C@H]1C(=O)O[C@H](C(C)C)C(=O)N(C)[C@@H](C(C)C)C(=O)O[C@H](C(C)C)C(=O)N(C)[C@@H](C(C)C)C(=O)O[C@H](C(C)C)C(=O)N1C` as the compound, how does the Potency read?
Its Potency is active: 4.11 µM.

With `CC(=O)OC(C)(C)/C=C/C(=O)C(C)(O)C1C(O)CC2(C)C3CC=C4C(CC(O)C(=O)C4(C)C)C3(C)C(=O)CC12C` (stereo not given) as the compound, how does the Potency read?
Its Potency is active: 0.0164 µM.

With `COc1ccc(CNC(=O)c2cc3c(-c4ccccc4F)nn(C)c3s2)c(OC)c1` as the compound, how does the Potency read?
Its Potency is active: 6.51 µM.

Which Potency does the source give for `CCOC(=O)c1ccc(NC(=O)c2c(O)[nH]c(=O)[nH]c2=O)cc1` here?
Its Potency is inconclusive [inhibitor, full curve].

For `CN1C(=O)C(=Cc2ccc(Sc3ccccc3)o2)C(=O)N(C)C1=S`, which Potency is on record?
Its Potency is inconclusive [inhibitor, single point].

With `Cc1cc(=O)oc2cc(OCC(=O)N3CCN(Cc4ccc5c(c4)OCO5)CC3)ccc12` as the compound, how does the “activity change, negative = growth inhibition” value read?
The value was inactive: -19%.

With `CCN(CC)c1ccc(/C=N/c2sc3c(c2C#N)C2CCN3CC2)c(O)c1` as the compound, how does the Potency read?
Its Potency is active: 23.1 µM.

Which Potency does the source give for `CN1CCN(c2cc(N3CCCC3)c([N+](=O)[O-])cc2F)CC1` here?
The Potency was inconclusive [inhibitor, partial curve].

Which Potency does the source give for `O=c1[nH]c2ccccc2n1CCCN1CCC(n2c(=O)[nH]c3cc(Cl)ccc32)CC1` here?
The Potency was active: 23.7 µM.

With `CC(=O)OC1CCC2(C)C(CCC3C4CC(N5CC5)C(C(C)=O)C4(C)CC(=O)C32)C1` (stereo not given) as the compound, how does the Potency read?
The Potency was active: 14.6 µM.

With `COC(=O)C1=C(c2ccc(OC(F)(F)F)cc2)C[C@@H]2CC[C@H]1N2C(=O)N1CCCC1` as the compound, how does the Potency read?
The Potency was active: 1.84 µM.

For `Cc1ccc(NC(=O)CN2C(=O)CN=C(c3ccccc3)c3cc(Cl)ccc32)cc1`, which Potency is on record?
Its Potency is inconclusive [inhibitor, single point].

Which Potency does the source give for `CCOC(=O)c1ccccc1NC(=O)N(Cc1ccc(CC)cc1)Cc1cn[nH]c1-c1ccc(OC)cc1` here?
The Potency was active: 14.6 µM.

For `CN1C2CCC1/C(=C/c1ccccn1)C(=O)/C2=C\c1ccccn1`, which Potency is on record?
Its Potency is active: 0.651 µM.

For `O=C(c1c[nH]c2ccc(S(=O)(=O)N3CCOCC3)cc2c1=O)N1CCC2(CC1)OCCO2`, which “activity change, negative = growth inhibition” value is on record?
The value was inactive: -0.589%.

Which Potency does the source give for `Cc1ccc(NC(=O)N(Cc2ccc3c(c2)OCO3)C2CCN(Cc3ccccc3)CC2)cc1Cl` here?
Its Potency is active: 14.6 µM.

For `O=C1N(c2ccccc2)C(c2cccnc2)N2CCCN12` (stereo not given), which Potency is on record?
The Potency was inconclusive [inhibitor, full curve, poor fit].

Which Potency does the source give for `O=C1NC(=O)C(=Cc2cccs2)C(=O)N1` here?
The Potency was active: 16.4 µM.

Which Potency does the source give for `CNC(=O)Oc1ccc2c(c1)C1(C)CCN(C)C1N2C` (stereo not given) here?
The Potency was active: 29.9 µM.

For `CC(=O)OC1N=C(c2ccccc2)c2cc(C)ccc2NC1=O` (stereo not given), which Potency is on record?
Its Potency is inconclusive [inhibitor, full curve, poor fit].

For `COP(=S)(OC)SCn1nnc2ccccc2c1=O`, which Potency is on record?
The Potency was active: 23.1 µM.

Which Potency does the source give for `CN(N=Cc1ccc([N+](=O)[O-])cc1)c1ccccn1` here?
Its Potency is inconclusive [inhibitor, single point].

For `CN(C(=O)Cc1ccc2c(c1)OCO2)C1CCCN(Cc2ccccc2F)C1` (stereo not given), which Potency is on record?
The Potency was inconclusive [inhibitor, single point].

With `C=CCn1c(O)c(C(CC)=NC2CC2)c(=O)[nH]c1=O` as the compound, how does the “activity change, negative = growth inhibition” value read?
The value was inactive: 2.79%.

With `CCCCOCCCn1c(N)c(C(=O)OCCOC)c2nc3ccccc3nc21` as the compound, how does the Potency read?
Its Potency is inconclusive [inhibitor, single point].

Which Potency does the source give for `O=C1NCN(c2ccccc2)C12CCN(C(c1nnnn1Cc1ccccc1)C1CC1)CC2` (stereo not given) here?
The Potency was active: 20.6 µM.

For `C[C@H]1CC[C@@H]2[C@@H](C)[C@H]3[C@H](C[C@H]4[C@@H]5CC=C6CC(O[C@@H]7O[C@H](CO)[C@H](O)[C@H](O[C@@H]8O[C@H](CO)[C@@H](O)[C@H](O)[C@H]8O)[C@H]7O[C@H]7O[C@@H](C)[C@H](O)[C@@H](O)[C@H]7O)CC[C@]6(C)[C@H]5CC[C@]34C)N2C1` (stereo not given in full), which Potency is on record?
The Potency was inconclusive [inhibitor, single point].

With `O=C(CCS(=O)(=O)c1ccccc1)Nc1nnc(-c2ccco2)o1` as the compound, how does the Potency read?
The Potency was inconclusive [inhibitor, single point].

For `CCOC(=O)[C@]12Cc3cc(Cl)ccc3[C@H]1N(C)C(=O)c1ccccc12`, which Potency is on record?
The Potency was inconclusive [inhibitor, single point].

For `COC(=O)C1=C(c2ccc(F)cc2F)C[C@@H]2CC[C@H]1N2C(=O)N1CCCCC1`, which Potency is on record?
Its Potency is active: 18.4 µM.

With `O=C(O)COc1nc(Cl)c(Cl)cc1Cl` as the compound, how does the Potency read?
Its Potency is inconclusive [inhibitor, single point].

With `CC(=O)C1CCC2C3CCC4CC(O)CCC4(C)C3C(O)CC12C` (stereo not given) as the compound, how does the Potency read?
Its Potency is inconclusive [inhibitor, partial curve].
